Experimental data: the supplement of paper PMC10126150
Values marked as one replicate rest on one cluster of the flow cell; about a third of the high ones do not repeat.

System: ATP
Assay: switch fluorescence ratio, 500 uM ATP over buffer (Cy3 cluster intensity, sum of 5 cycles each) (fold (ratio)); higher = stronger signal-on switching upon ATP binding; sequences stand for … in TCGTCGGCAGCGTCAGATGTGTATAAGAGACAGTTTTTTTTTTTTTTTTTTTTTTTTT…TC
Conditions: aptamer strand: ATP DNA aptamer (quencher-CACCTGGGGGAGTATTGCGGAGGAAGG + anchor), 100 nM annealed; ATP concentration: 500 uM; one replicate
How it was run: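 Per cluster, summed Cy3 intensity from the target cycles was divided by that from the buffer cycles to give the fluorescence ratio, then averaged per switch-domain sequence. Clusters outside 100-1000 RFU were excluded. The Cy3-labelled switching-strand clusters, on a modified Illumina MiSeq flow-cell, were annealed to 100 nM quencher-labelled ATP aptamer and imaged in selection buffer, then after 15 min with 500 uM ATP at 22 °C, for five cycles with NaOH stripping and re-annealing between them.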
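Note: ATP exposure 15 min at 22 °C before imaging.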

Row | Sequence | switch fluorescence ratio
1 | CCACACGTT | 1.04
2 | ACTAGTGCAT | 1.04
3 | TTCCATATT | 1.02
4 | CCCCAATATT | 1.43
5 | CCATTCAGTA | 1.01
6 | GAATGAGGTT | 1.03
7 | CTGTATGGGC | 0.975
8 | TTTGAGAAAC | 0.968
9 | TTCGGCACAG | 0.983
10 | CCCAAACTAG | 0.992
11 | GCTGTGTGCC | 0.975
12 | TGTACTCTTT | 0.977
13 | TTTCTCCAAA | 1.12
14 | CATTCATGGG | 1.01
15 | TCCCGTCGGA | 1
16 | CGTCCCGGCG | 1.02
17 | TATTGTCAG | 1.05
18 | TATGGCTTAG | 0.991
19 | CTGGACGCGC | 1.28
20 | CCGTGCGTTC | 2.52
21 | CTGAATGTAA | 1.13
22 | AGTTGCAGTT | 1.05
23 | AACCCTGGGT | 0.995
24 | TAAGCCGGAG | 1
25 | CCCGTGCTAA | 1.06
26 | CGCTGTCGCG | 0.97

Row | Sequence | switch fluorescence ratio
27 | TTGGATTTGA | 1
28 | CGGTAACGGC | 0.976
29 | GGACTCGTGG | 0.991
30 | AAAAAGGTA | 0.989
31 | TCTTAGCCGG | 0.969
32 | ACACAGTTTC | 1.02
33 | GTAGATGGTG | 0.989
34 | TTCCCTTGCT | 1.1
35 | ATACATTTGA | 1.01
36 | GGATACCAAA | 0.976
37 | TCATCGTGTG | 1.01
38 | TCAAAGGGAA | 0.978
39 | TAGACCCG | 1.04
40 | TCTTGGCAGG | 1.02
41 | GTTTGAGACT | 1.04
42 | ACCCGCGGGG | 0.972
43 | GGGGCACAGG | 1.14
44 | CCTGGGCCGT | 0.961
45 | GGATAACGTG | 0.971
46 | AGATCACCCC | 1.1
47 | GTTTAATGTC | 1.01
48 | GGGTGGTGCA | 0.963
49 | TTTTGGTAG | 0.997
50 | CGGGTACTTA | 1.03
51 | TTACGGGAGG | 1.07
52 | GTTTATAGTC | 0.992

Row | Sequence | switch fluorescence ratio
53 | TTAACGCACA | 1.77
54 | GATCGCGTCT | 1.01
55 | CGTTCAGCG | 1.06
56 | AGATAAGGCT | 0.985
57 | ATTGCAAATA | 0.99
58 | TGAGTGAAGT | 0.968
59 | TTAGATGTGG | 1
60 | ACGAGGAGGT | 0.948
61 | TAGAAGCTCG | 1.01
62 | AATCAGGGTT | 0.98
63 | CTGAGTGGCC | 0.995
64 | AAACGCAAGA | 2.78
65 | TAAAAAAACC | 0.963
66 | AATTCGGGGA | 1.02
67 | CACAAGTATG | 1.01
68 | GGCCTAAGTA | 1.03
69 | CGTACGACGG | 1.02
70 | ACGTCACGCG | 1.19
71 | ATTCGTACGT | 1.04
72 | AAGGGAGGTG | 1.04
73 | ACATGGCTGT | 1.02
74 | TACTCGAGC | 1.01
75 | TGATTAGGAA | 1.02
76 | GCGGACTATC | 1.01
77 | AATATGCCTG | 0.959
78 | CGGCGTTTTT | 1.04

Row | Sequence | switch fluorescence ratio
79 | CGTCGTTTGT | 0.968
80 | GCTTTCAAGC | 1.03
81 | GGGTTTCGTA | 1.01
82 | CTGTCTTCAA | 1.03
83 | GTGCTAATAA | 1.02
84 | GAGATAACGG | 0.996
85 | TCTCGTGGGG | 0.995
86 | GAGAACACGC | 0.991
87 | CAATCTGTTT | 1.02
88 | ATCGACTTAC | 1.39
89 | TTAAGCCCCA | 1.01
90 | TAATATGCTT | 0.969
91 | CTCGCGGTGT | 1.07
92 | TCTCATGGGA | 0.986
93 | CGGCTAAGTT | 0.96
94 | AAAAAGTGGA | 1.09
95 | CGGAAACT | 1.02
96 | AAGATTTATG | 0.972
97 | TGAAAAATGA | 1.04
98 | TTATGCTG | 0.987
99 | AAGGTAGTGA | 1.03
100 | GCATGGCCTC | 1.05
101 | ACGGTTCAAG | 0.973
102 | TTATCAGAA | 1.01
103 | AGCGGCATGA | 1.02
104 | TTATCCGCAC | 3.94

Row | Sequence | switch fluorescence ratio
105 | TATGACAGTT | 0.947
106 | TCGTGAAGCC | 1
107 | CGCTCCTCAG | 1.42
108 | ATTATCAGTA | 0.995
109 | CCAATTCCTT | 0.995
110 | ACAAAAGGTG | 1.32
111 | GCTTCCCAGT | 1.13
112 | CCTAGAAGAC | 1.9
113 | TCATGCATTG | 0.945
114 | ATACGTTCGT | 1.01
115 | GTGATACAGC | 1.04
116 | AGACAGCTCG | 1.04
117 | GGGACCATTA | 1.01
118 | AGAGCTTAGG | 1
119 | GCGATTTTCG | 0.968
120 | ACGTCAAAAA | 3.63
121 | AGAAGGAGCA | 1.01
122 | TAGCTGAATC | 1.03
123 | AAGGAGCGCA | 1.04
124 | GGTGGATCTA | 1.03
125 | GCCGCCCAGG | 2.64
126 | TATCGTTTTC | 0.987
127 | GCCCACCCCT | 1.05
128 | CTTCCAGGAT | 1
129 | CTGGCTCGTA | 0.976
130 | GACGAGCAGC | 1.29

Row | Sequence | switch fluorescence ratio
131 | AGGCTGCCAA | 1.03
132 | GTTGCTCGAG | 0.994
133 | CAAGGCTC | 0.974
134 | ATCTAGAACG | 0.995
135 | GGGAATGAAT | 0.988
136 | TTTTTAATT | 0.91
137 | GCTATGGGGG | 1.02
138 | CATCGGAGTA | 1.01
139 | AAAGCACCAA | 1.07
140 | AGCAGACGAT | 1.28
141 | AAGCAAAATT | 0.983
142 | CAGGAATGCA | 0.984
143 | CTTGCGGGCA | 0.982
144 | GTTCGACTCG | 0.988
145 | TGCACACTTA | 1.03
146 | CTAATATTTT | 0.971
147 | TTAACTAAGG | 0.984
148 | TTGCTTACT | 1.14
149 | TTATATTTTC | 1.07
150 | TAAGTCTCAT | 0.987
151 | CCCAGAAGCG | 1
152 | ATGCAGGGCC | 0.979
153 | TCAAACGATT | 1
154 | CTGGGCTTTT | 1.03
155 | AGGCTTGAAT | 1.01
156 | TGTAAAGCGC | 1.22

Row | Sequence | switch fluorescence ratio
157 | AGAATAATCT | 1.04
158 | TTGAATATA | 0.962
159 | CTACCTATCC | 1.81
160 | AGCGAAATGG | 1.11
161 | TAAGGCGCA | 1
162 | GTCGTGCATT | 0.984
163 | GCGTCTAGGG | 1
164 | CAACGTATCA | 1.1
165 | TATCTTGTTC | 1.04
166 | GGACGACCGT | 1.03
167 | TTATGCCGTC | 0.953
168 | GAAGCCTCTC | 1.05
169 | TGGGTCGGAT | 0.955
170 | TCAGTCTACT | 1.04
171 | TTCGTTAGGC | 1.01
172 | CCAAGATTG | 1
173 | ACTAGATGCT | 0.997
174 | TTGGTGTACG | 0.932
175 | ACTAACCGG | 1.06
176 | ACGGATAAAA | 1.01
177 | GTTATGAATT | 0.976
178 | GCATTTGGAA | 0.969
179 | TCCGTGATGA | 1
180 | AAAATTGCTA | 0.988
181 | AAATGACCCT | 1.1
182 | CGCGTTGTTT | 1

Row | Sequence | switch fluorescence ratio
183 | ACAGCGACTA | 1.08
184 | GAGCATGT | 1.03
185 | TTGTGCAGTC | 1.46
186 | TAACCACTCA | 1.05
187 | ACTAGGTAT | 1.03
188 | AAACTTATTA | 0.976
189 | ACAAGATCTG | 0.987
190 | AATCTAGCTT | 1.01
191 | ACAACCGGT | 0.996
192 | TAGACCGTAA | 1.12
193 | TGCAGTAAGT | 1.03
194 | AAGCACGTGT | 1.01
195 | TGGGACGATT | 0.96
196 | GTTATTGTAG | 0.962
197 | TTTTATAACA | 0.989
198 | CCGTGTAAAC | 2.04
199 | GTGTCCGGTT | 1.05
200 | AATTTTTGT | 1.01
201 | CTCGAACTAC | 3.75
